According to the supplement of paper PMC4604168 (melanoma cell lines):
This is one part of the list. Most values come without repeats; read them as rough.

Columns and labels:
Assay in all cases: cell count relative to DMSO control; melanoma cells; higher = more viable cells
Details in all cases: library dose: low library concentration; 72 h; first compound 0.4 µM
WM115 = system: WM115
WM1716 = system: WM1716
WM1745 = system: WM1745
WM3526 = system: WM3526
WM3619 = system: WM3619
WM451Lu = system: WM451Lu
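Note: cell number obtained by counting DAPI-stained nuclei in high-throughput microscope images with image analysis software, screen run in 1,536-well plates.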

Row | Structure (SMILES) | cell count (WM115) | cell count (WM1716) | cell count (WM1745) | cell count (WM3526) | cell count (WM3619) | cell count (WM451Lu)
1 | CCCCCCCCCCCCCCCCCCOP(=O)([O-])OC1CC[N+](C)(C)CC1 [Perifosine] + C[C@]1(O)C[C@@H](c2nc(-c3ccc4ccc(-c5ccccc5)nc4c3)c3c(N)nccn32)C1 [OSI906] (partner dose 0.4 µM) | 88.9% | 77% | 75.6% | 78.3% | 106% | 89.9%
2 | CCCCCCCCCCCCCCCCCCOP(=O)([O-])OC1CC[N+](C)(C)CC1 [Perifosine] + C[C@]1(c2nc3c(C(N)=O)cccc3[nH]2)CCCN1 [Veliparib] (partner dose 1.4 µM) | 96.7% | 76.4% | 81.4% | 85.5% | 67.1% | 107%
3 | Cn1sc(=O)n(Cc2ccccc2)c1=O + Cn1nnc2c(C(N)=O)ncn2c1=O [temozolomide] (partner dose 2 µM) | 89.3% | 75.8% | 96.1% | 122% | 96.8% | 89%
4 | Cn1sc(=O)n(Cc2ccccc2)c1=O + C[C@@H](Oc1cc(-c2cnn(C3CCNCC3)c2)cnc1N)c1c(Cl)ccc(F)c1Cl [Crizotinib] (partner dose 0.2 µM) | 94.3% | 96.1% | 94.8% | 87.5% | 97.9% | 114%
5 | C[C@@H](N)c1ccc(C(=O)Nc2ccnc3[nH]ccc23)cc1 + CCc1ccc(CCOc2ccc(CC3SC(=O)NC3=O)cc2)nc1 [pioglitazone] (partner dose 2 µM) | 103% | 77.1% | 80.3% | 110% | 77.6% | 87%
6 | CCCCCCCCCCCCCCCCCCOP(=O)([O-])OC1CC[N+](C)(C)CC1 [Perifosine] + C#Cc1cccc(Nc2ncnc3cc(OCCOC)c(OCCOC)cc23)c1 [erlotinib] (partner dose 0.8 µM) | 85.6% | 88.6% | 89.1% | 98.9% | 85.7% | 95.9%
7 | CCCCCCCCCCCCCCCCCCOP(=O)([O-])OC1CC[N+](C)(C)CC1 [Perifosine] + CN(NC(=O)CC(=O)NN(C)C(=S)c1ccccc1)C(=S)c1ccccc1 [STA4783] (partner dose 0.006 µM) | 87.3% | 73.1% | 69.7% | 91% | 93.7% | 119%
8 | C[C@@H](N)c1ccc(C(=O)Nc2ccnc3[nH]ccc23)cc1 + Nc1cccc2c1CN(C1CCC(=O)NC1=O)C2=O [lenalidomide] (partner dose 1 µM) | 113% | 53.7% | 92.5% | 111% | 98.5% | 90.5%
9 | C[C@@H](N)c1ccc(C(=O)Nc2ccnc3[nH]ccc23)cc1 + CO[C@H]1C[C@@H]2CC[C@@H](C)[C@@](O)(O2)C(=O)C(=O)N2CCCC[C@H]2C(=O)O[C@H]([C@H](C)C[C@@H]2CC[C@@H](OCCO)[C@H](OC)C2)CC(=O)[C@H](C)/C=C(\C)[C@@H](O)[C@@H](OC)C(=O)[C@H](C)C[C@H](C)/C=C/C=C/C=C/1C [everolimus] (partner dose 0.02 µM) | 79.7% | 60.2% | 91% | 78.2% | 58.9% | 94.3%
10 | CCCCCCCCCCCCCCCCCCOP(=O)([O-])OC1CC[N+](C)(C)CC1 [Perifosine] + C[C@@H](Oc1cc(-c2cnn(C3CCNCC3)c2)cnc1N)c1c(Cl)ccc(F)c1Cl [Crizotinib] (partner dose 0.2 µM) | 97.5% | 117% | 123% | 91.6% | 90.8% | 83%
11 | CCCCCCCCCCCCCCCCCCOP(=O)([O-])OC1CC[N+](C)(C)CC1 [Perifosine] + CC1(C)NC(=O)N(c2ccc([N+](=O)[O-])c(C(F)(F)F)c2)C1=O [nilutamide] (partner dose 1 µM) | 77% | 65.7% | 137% | 70.9% | 85% | 74.4%
12 | Cn1sc(=O)n(Cc2ccccc2)c1=O + CC(C)C[C@H](NC(=O)[C@H](Cc1ccccc1)NC(=O)c1cnccn1)B(O)O [Bortezomib] (partner dose 0.001 µM) | 98.5% | 75.1% | 100% | 85.2% | 84.3% | 81.1%
13 | CCCCCCCCCCCCCCCCCCOP(=O)([O-])OC1CC[N+](C)(C)CC1 [Perifosine] + N#Cc1c(O)c2c(-c3ccc(-c4ccccc4O)cc3)csc2[nH]c1=O [A769662] (partner dose 2 µM) | 118% | 93.8% | 91.9% | 84.1% | 82.9% | 97%
14 | C[C@@H](N)c1ccc(C(=O)Nc2ccnc3[nH]ccc23)cc1 + Cc1cc(Nc2cc(N3CCN(C)CC3)nc(/C=C/c3ccccc3)n2)n[nH]1 [ENMD2076] (partner dose 0.04 µM) | 102% | 65.5% | 61.2% | 111% | 93.3% | 72.4%
15 | CCCCCCCCCCCCCCCCCCOP(=O)([O-])OC1CC[N+](C)(C)CC1 [Perifosine] + CS(=O)(=O)c1ccc(C(=O)Nc2ccc(Cl)c(-c3ccccn3)c2)c(Cl)c1 [vismodegib] (partner dose 1 µM) | 103% | 96.8% | 95.5% | 83% | 90.4% | 95.5%
16 | CCCCCCCCCCCCCCCCCCOP(=O)([O-])OC1CC[N+](C)(C)CC1 [Perifosine] + CC1(C)CCC(c2ccc(Cl)cc2)=C(CN2CCN(c3ccc(C(=O)NS(=O)(=O)c4ccc(N[C@H](CCN5CCOCC5)CSc5ccccc5)c(S(=O)(=O)C(F)(F)F)c4)cc3)CC2)C1 [ABT263] (partner dose 0.4 µM) | 71.9% | 64.9% | 9.64% | 109% | 88.3% | 77.5%
17 | CCCCCCCCCCCCCCCCCCOP(=O)([O-])OC1CC[N+](C)(C)CC1 [Perifosine] + CN(c1ncccc1CNc1nc(Nc2ccc3c(c2)CC(=O)N3)ncc1C(F)(F)F)S(C)(=O)=O [PF562271] (partner dose 0.08 µM) | 95.4% | 84.2% | 79.7% | 97% | 124% | 85.7%
18 | C[C@@H](N)c1ccc(C(=O)Nc2ccnc3[nH]ccc23)cc1 + Cn1c(Nc2ccc(C(F)(F)F)cc2)nc2cc(Oc3ccnc(-c4ncc(C(F)(F)F)[nH]4)c3)ccc21 [CHIR265] (partner dose 0.08 µM) | 80.2% | 63.7% | 53.8% | 66.4% | 78.2% | 107%
19 | Cn1sc(=O)n(Cc2ccccc2)c1=O + Cn1c(Nc2ccc(C(F)(F)F)cc2)nc2cc(Oc3ccnc(-c4ncc(C(F)(F)F)[nH]4)c3)ccc21 [CHIR265] (partner dose 0.08 µM) | 58.9% | 79.4% | 72.8% | 63% | 59.2% | 96.2%
20 | Cn1sc(=O)n(Cc2ccccc2)c1=O + CNC(=O)c1cc(Oc2ccc(NC(=O)Nc3ccc(Cl)c(C(F)(F)F)c3)cc2)ccn1 [sorafenib] (partner dose 0.4 µM) | 109% | 89.9% | 116% | 101% | 77.2% | 97.1%
21 | Cn1sc(=O)n(Cc2ccccc2)c1=O + CCCCCCCCCCCC1=C(O)C(=O)C=C(O)C1=O [Embelin] (partner dose 1.2 µM) | 101% | 102% | 79.5% | 108% | 97.4% | 98.9%
22 | Cn1sc(=O)n(Cc2ccccc2)c1=O + CCc1ccc(CCOc2ccc(CC3SC(=O)NC3=O)cc2)nc1 [pioglitazone] (partner dose 2 µM) | 99.3% | 102% | 84.5% | 92.7% | 85.8% | 84.6%
23 | CCCCCCCCCCCCCCCCCCOP(=O)([O-])OC1CC[N+](C)(C)CC1 [Perifosine] + O=S(=O)(c1ccccc1)N(CC(F)(F)F)c1ccc(C(O)(C(F)(F)F)C(F)(F)F)cc1 [T0901317] (partner dose 1.4 µM) | 92.9% | 86.5% | 84.4% | 86.4% | 96.4% | 81.2%
24 | Cn1sc(=O)n(Cc2ccccc2)c1=O + CC(C)CCN1c2nc(Nc3cc(F)c(O)c(F)c3)ncc2N(C)C(=O)C1C [BID1870] (partner dose 0.2 µM) | 98.8% | 96.9% | 110% | 91.3% | 100% | 96.8%
25 | CCCCCCCCCCCCCCCCCCOP(=O)([O-])OC1CC[N+](C)(C)CC1 [Perifosine] + COc1ccc2c(c1)CCC1C2CCC2(C)C(NCCCCCCN3C(=O)C=CC3=O)CCC12 [U73122] (partner dose 0.4 µM) | 91.2% | 93.8% | 96.4% | 88.1% | 110% | 130%
26 | Cn1sc(=O)n(Cc2ccccc2)c1=O + Clc1ccc(Nc2nnc(Cc3ccncc3)c3ccccc23)cc1 [vatalanib] (partner dose 2 µM) | 100% | 97.6% | 98.9% | 87.4% | 87.6% | 104%
27 | Cn1sc(=O)n(Cc2ccccc2)c1=O + CC1(C)NC(=O)N(c2ccc([N+](=O)[O-])c(C(F)(F)F)c2)C1=O [nilutamide] (partner dose 1 µM) | 92% | 98.8% | 107% | 99.7% | 91.7% | 104%
28 | C[C@@H](N)c1ccc(C(=O)Nc2ccnc3[nH]ccc23)cc1 + COCC[n+]1c2c(n(Cc3cnccn3)c1C)C(=O)c1ccccc1C2=O [YM155] (partner dose 0.0004 µM) | 107% | 75% | 81.4% | 129% | 143% | 74.1%
29 | CCCCCCCCCCCCCCCCCCOP(=O)([O-])OC1CC[N+](C)(C)CC1 [Perifosine] + Clc1ccc(Nc2nnc(Cc3ccncc3)c3ccccc23)cc1 [vatalanib] (partner dose 2 µM) | 104% | 96.5% | 93.5% | 95.8% | 87.9% | 115%
30 | CCCCCCCCCCCCCCCCCCOP(=O)([O-])OC1CC[N+](C)(C)CC1 [Perifosine] + Cn1cc(/C=C2\C(=O)Nc3cccnc32)c2ccccc21 [GW441756] (partner dose 0.4 µM) | 94.8% | 101% | 120% | 108% | 105% | 62.7%
